Measurements taken from the supplement of paper PMC12015411.

Tested on: Escherichia coli BW25113
Assay: growth relative to no-drug wells (fraction of no-drug control); higher = more growth, less inhibition
Protocol: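 8 x 8 checkerboard in cation-adjusted Mueller-Hinton broth at 37 °C; OD600 at the end of exponential growth as a fraction of no-drug wells, two biological replicates.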

CO[C@H]1/C=C/O[C@@]2(C)Oc3c(C)c(O)c4c(O)c(c(/C=N/N5CCN(C)CC5)c(O)c4c3C2=O)NC(=O)/C(C)=C\C=C\[C@H](C)[C@H](O)[C@@H](C)[C@@H](O)[C@@H](C)[C@H](OC(C)=O)[C@@H]1C [Rifampicin]
nitroxoline concentration 0 µg/ml
Conditions | growth
0.7185 µg/ml | 0.94
1.3487 µg/ml | 0.831
1.979 µg/ml | 0.7899
2.6092 µg/ml | 0.757
3.2395 µg/ml | 0.7464
3.8697 µg/ml | 0.66
4.5 µg/ml | 0.72

CO[C@H]1/C=C/O[C@@]2(C)Oc3c(C)c(O)c4c(O)c(c(/C=N/N5CCN(C)CC5)c(O)c4c3C2=O)NC(=O)/C(C)=C\C=C\[C@H](C)[C@H](O)[C@@H](C)[C@@H](O)[C@@H](C)[C@H](OC(C)=O)[C@@H]1C [Rifampicin] + Oc1ccc([N+](=O)[O-])c2cccnc12 [nitroxoline]
growth
Conditions | nitroxoline concentration 0.136 µg/ml | nitroxoline concentration 0.255 µg/ml | nitroxoline concentration 0.374 µg/ml | nitroxoline concentration 0.493 µg/ml | nitroxoline concentration 0.612 µg/ml | nitroxoline concentration 0.731 µg/ml | nitroxoline concentration 0.75 µg/ml
0.7185 µg/ml | 0.878 | 0.923 | 0.926 | 0.846 | 0.802 | 0.776 | 0.7232
1.3487 µg/ml | 0.813 | 0.787 | 0.761 | 0.683 | 0.714 | 0.6329 | 0.629
1.979 µg/ml | 0.732 | 0.73 | 0.514 | 0.661 | 0.533 | 0.42 | 0.348
2.6092 µg/ml | 0.704 | 0.627 | 0.449 | 0.272 | 0.0167 | 0.0579 | 0.0821
3.2395 µg/ml | 0.615 | 0.5792 | 0.281 | 0.0109 | 0.0105 | 0.00127 | 0.0178
3.8697 µg/ml | 0.611 | 0.483 | 0.0482 | 0.0132 | 0.0115 | 0.0122 | 0.0146
4.5 µg/ml | 0.638 | 0.343 | 0.00553 | 0.001842 | 0.00138 | 0 | 0.00161

CO[C@@]1(NC(=O)C(C(=O)O)c2ccsc2)C(=O)N2[C@@H](C(=O)O)C(C)(C)S[C@@H]21 (some centres undefined) [Temocillin]
nitroxoline concentration 0 µg/ml
Conditions | growth
0.4088 µg/ml | 0.947
0.7025 µg/ml | 0.988
0.8175 µg/ml | 0.9974
1.405 µg/ml | 0.562
1.635 µg/ml | 0.518
2.81 µg/ml | 0.484
3.27 µg/ml | 0.504

CO[C@@]1(NC(=O)C(C(=O)O)c2ccsc2)C(=O)N2[C@@H](C(=O)O)C(C)(C)S[C@@H]21 (some centres undefined) [Temocillin] + Oc1ccc([N+](=O)[O-])c2cccnc12 [nitroxoline]
growth
Conditions | nitroxoline concentration 0.136 µg/ml | nitroxoline concentration 0.255 µg/ml | nitroxoline concentration 0.374 µg/ml | nitroxoline concentration 0.493 µg/ml | nitroxoline concentration 0.612 µg/ml | nitroxoline concentration 0.731 µg/ml | nitroxoline concentration 0.85 µg/ml
0.4088 µg/ml | 1 | 1 | 0.946 | 0.751 | 0.642 | 0.566 | 0.497
0.7025 µg/ml | 1 | 1 | 0.973 | 0.7834 | 0.655 | 0.589 | 0.494
0.8175 µg/ml | 1 | 1 | 0.966 | 0.779 | 0.64 | 0.578 | 0.557
1.405 µg/ml | 0.881 | 0.801 | 0.849 | 0.768 | 0.632 | 0.556 | 0.497
1.635 µg/ml | 0.925 | 1 | 0.909 | 0.738 | 0.597 | 0.547 | 0.486
2.81 µg/ml | 0.49 | 0.477 | 0.6 | 0.517 | 0.409 | 0.33 | 0.215
3.27 µg/ml | 0.376 | 0.382 | 0.426 | 0.35 | 0.291 | 0.199 | 0.222

CN(C)[C@@H]1C(O)=C(C(N)=O)C(=O)[C@@]2(O)C(O)=C3C(=O)c4c(O)cccc4[C@@](C)(O)[C@H]3C[C@@H]12 [Tetracycline]
nitroxoline concentration 0 µg/ml
Conditions | growth
0.0562 µg/ml | 0.816
0.0975 µg/ml | 0.686
0.1125 µg/ml | 0.649
0.195 µg/ml | 0.482
0.225 µg/ml | 0.398
0.39 µg/ml | 0.24
0.45 µg/ml | 0.114

CN(C)[C@@H]1C(O)=C(C(N)=O)C(=O)[C@@]2(O)C(O)=C3C(=O)c4c(O)cccc4[C@@](C)(O)[C@H]3C[C@@H]12 [Tetracycline] + Oc1ccc([N+](=O)[O-])c2cccnc12 [nitroxoline]
growth
Conditions | nitroxoline concentration 0.136 µg/ml | nitroxoline concentration 0.255 µg/ml | nitroxoline concentration 0.374 µg/ml | nitroxoline concentration 0.493 µg/ml | nitroxoline concentration 0.612 µg/ml | nitroxoline concentration 0.731 µg/ml | nitroxoline concentration 0.85 µg/ml
0.0562 µg/ml | 1 | 0.822 | 0.663 | 0.38 | 0.465 | 0.388 | 0.335
0.0975 µg/ml | 0.8777 | 0.707 | 0.605 | 0.465 | 0.465 | 0.367 | 0.325
0.1125 µg/ml | 0.756 | 0.649 | 0.561 | 0.498 | 0.39 | 0.338 | 0.306
0.195 µg/ml | 0.611 | 0.5782 | 0.494 | 0.306 | 0.24 | 0.169 | 0.164
0.225 µg/ml | 0.529 | 0.525 | 0.457 | 0.351 | 0.251 | 0.19 | 0.137
0.39 µg/ml | 0.269 | 0.253 | 0.21 | 0.132 | 0.0429 | 0.0425 | 0.0169
0.45 µg/ml | 0.103 | 0.0757 | 0.047 | 0.0252 | 0 | 0.000219 | 0.0142

CC(=O)Nc1c2sscc-2n(C)c1=O [Thiolutin]
nitroxoline concentration 0 µg/ml
Conditions | growth
0.0088 µg/ml | 0.985
0.015 µg/ml | 1
0.0175 µg/ml | 1
0.03 µg/ml | 0.948
0.035 µg/ml | 0.926
0.06 µg/ml | 0.874
0.07 µg/ml | 0.939

CC(=O)Nc1c2sscc-2n(C)c1=O [Thiolutin] + Oc1ccc([N+](=O)[O-])c2cccnc12 [nitroxoline]
growth
Conditions | nitroxoline concentration 0.136 µg/ml | nitroxoline concentration 0.255 µg/ml | nitroxoline concentration 0.374 µg/ml | nitroxoline concentration 0.493 µg/ml | nitroxoline concentration 0.612 µg/ml | nitroxoline concentration 0.731 µg/ml | nitroxoline concentration 0.85 µg/ml
0.0088 µg/ml | 1 | 1 | 0.819 | 0.498 | 0.4921 | 0.373 | 0.303
0.015 µg/ml | 1 | 1 | 0.845 | 0.607 | 0.53 | 0.462 | 0.2615
0.0175 µg/ml | 1 | 1 | 0.944 | 0.648 | 0.513 | 0.401 | 0.285
0.03 µg/ml | 1 | 1 | 0.932 | 0.722 | 0.548 | 0.429 | 0.286
0.035 µg/ml | 1 | 1 | 0.991 | 0.769 | 0.58 | 0.46 | 0.26
0.06 µg/ml | 0.964 | 1 | 0.9 | 0.731 | 0.503 | 0.403 | 0.295
0.07 µg/ml | 0.981 | 1 | 0.808 | 0.574 | 0.471 | 0.387 | 0.324

Bacterial growth in Mueller-Hinton broth at 37 °C with the drug at the dose given, alone or with nitroxoline. Checkerboards on E. coli BW25113: OD600 at the end of exponential growth as a fraction of no-drug wells. Colistin series: OD595 at 10.75 h as a fraction of the colistin-free well. 1 = full growth, lower = more inhibition. No active / inactive call per well. Checkerboard doses stop near each drug's IC75, and their values pile up at 1, as if capped there. Colistin and gentamicin are mixtures; one drawing stands for each.
